# Reference: PubChem BioAssay AID588342 (National Center for Advancing Translational Sciences (NCATS), 2011)
# About 25,000 (6.9%) of roughly 360,000 compounds were called active. The inconclusive results got no clear call from the source; some entries with a clear call stand among them for comparison. Calls come from the whole dose curve; as a rule, active = well fitted inhibition curve with a large enough effect; inconclusive = small, poorly fitted or top-dose-only effect; inactive = flat fitted curve, though single readings scatter. Potencies of inconclusive entries are doubtful fits and often do not repeat.
# Target: Luciferin 4-monooxygenase (Photinus pyralis) (UniProt P08659)
# Assay: qHTS profiling assay for firefly luciferase inhibitor/activator using purifed enzyme and Km concentrations of substrates (counterscreen for miR-21 project); note: nearly all actives have a fitted effect of over 55% in size
# Settings: purified FLuc, luminescence inhibition; series mostly up to 57.5 µM
# Outline: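 Purified P. pyralis luciferase (10nM final) with 10uM D-luciferin and 10uM ATP (Km levels) in 50mM Tris acetate pH 7.5, 10mM Mg acetate, 0.01% Tween-20, 0.05% BSA; qHTS 6-point titration, ~60 µM downward; luminescence read.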
# Potency is the fitted concentration of half-maximal effect; tags give direction and shape of the fitted curve.
# UniProt P08659, sequence (P08659 whole entry, looked up): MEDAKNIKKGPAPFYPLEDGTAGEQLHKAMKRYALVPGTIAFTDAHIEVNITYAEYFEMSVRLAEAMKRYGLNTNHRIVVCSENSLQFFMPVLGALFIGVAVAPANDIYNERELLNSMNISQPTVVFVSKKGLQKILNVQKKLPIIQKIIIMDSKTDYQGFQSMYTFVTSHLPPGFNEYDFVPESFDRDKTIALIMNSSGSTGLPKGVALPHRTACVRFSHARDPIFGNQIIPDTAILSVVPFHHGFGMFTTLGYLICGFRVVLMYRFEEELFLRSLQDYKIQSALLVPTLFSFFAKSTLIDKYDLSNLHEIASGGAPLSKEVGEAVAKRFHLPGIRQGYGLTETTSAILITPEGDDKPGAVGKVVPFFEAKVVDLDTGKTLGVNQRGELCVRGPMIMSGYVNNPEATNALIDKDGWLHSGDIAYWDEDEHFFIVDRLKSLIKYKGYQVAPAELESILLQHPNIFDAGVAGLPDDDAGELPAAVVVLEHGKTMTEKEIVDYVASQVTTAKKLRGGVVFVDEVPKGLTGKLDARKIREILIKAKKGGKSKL
row,Compound,Potency
1,COc1ccccc1N1CCN(C2=Nc3cccc4cccc2c34)CC1,active: 3.38 µM
2,COc1cc(C)ccc1OCCSc1nc2ccc(NC(=O)c3ccc4c(c3)OCO4)cc2s1,inactive
3,Cc1nn(Cc2ccc(C(=O)Nc3ccc(C(=O)OC(C)C)cc3)o2)c(C)c1Cl,inactive
4,O=C(COC(=O)c1ccccc1Nc1ccc(SC(F)F)cc1)NC1CC1,"inconclusive: 12 µM [inhibitor, partial curve]"
5,Cc1cc(NC(=O)CN(C)S(=O)(=O)c2ccc3c(c2)CCCC(=O)N3)ccc1Br,"inconclusive: 21.3 µM [inhibitor, partial curve]"
6,Cc1ccc2c3c([nH]c2c1C)-c1nonc1CC3,"inconclusive: 21.3 µM [inhibitor, partial curve, poor fit]"
7,Cc1ccccc1C(=O)N1CCN(CCNC(=O)C(=O)Nc2ccc(Br)cc2)CC1,inactive
8,Cc1nc(Nc2cccc(Cl)c2)c2oc3ccccc3c2n1,"inconclusive: 37.9 µM [inhibitor, partial curve, poor fit]"
9,COc1ccc2[nH]cc(CCNC(=O)Nc3c(C)cccc3C)c2c1,inactive
10,O=C(N/N=C/c1cn(CCOc2ccccc2)c2ccccc12)c1ccncc1,"inconclusive: 26.9 µM [inhibitor, partial curve, poor fit]"
11,O=C(O)c1cccc2c1C(=O)c1ccc(-c3ccc(F)cc3F)cc1S2(=O)=O,"inconclusive: 25.1 µM [inhibitor, single point]"
12,Cc1ccc(NC(=O)CSc2ncccc2C(=O)Oc2ccccc2Cl)cc1Cl,"inconclusive: 26.9 µM [inhibitor, single point]"
13,COc1ccc(-c2nc(N/N=C(\C)c3ccc(O)cc3)c3ccccc3n2)cc1,active: 1.69 µM
14,CC(=O)NC(Nc1c(C)n(C)n(-c2ccccc2)c1=O)C(Cl)(Cl)Cl (configuration not stated),inactive
15,CC(C)(C)C(=O)NC1=NN(c2c(Cl)cc(Cl)cc2Cl)C(=O)C1,inactive
16,CN(C)/N=C/C=C1\CCC/C(=C/c2cccs2)C1=O,active: 0.849 µM
17,CCOC(=O)c1sc(NC(=O)CCSC)nc1C,"inconclusive: 26.9 µM [inhibitor, single point]"
18,Cc1oc(-c2ccccc2F)nc1CN1CCC(C(=O)NCCc2ccc(Cl)cc2)CC1,inactive
19,O=C(CSc1nc2ccccc2c(=O)n1Cc1ccco1)NCc1ccco1,inactive
20,CCOc1ccc(-c2nonc2NC(=O)c2oc3ccc(Cl)cc3c2C)cc1,"inconclusive: 6.75 µM [inhibitor, partial curve, poor fit]"
21,N#Cc1ccccc1COC(=O)c1cc(=O)c2ccccc2o1,"inconclusive: 26.9 µM [inhibitor, partial curve, poor fit]"
22,Oc1ccccc1/C=N/Nc1ccccc1,active: 7.57 µM
23,O=C(CCCc1ccccc1)N1CCN(C2CCCCC2)CC1,"inconclusive: 26.9 µM [inhibitor, partial curve, poor fit]"
24,COC(=O)c1ccc(NC(=O)CCN2C(=O)C3CC=CCC3C2=O)cc1 (configuration not stated),inactive

row,Compound,Potency
1,COc1ccc(-c2nn(-c3ccccc3)cc2C(=O)NCCCn2ccnc2)cc1,inactive
2,CCOc1ccc(OCCCCn2ccnc2)cc1,inactive
3,Cc1ccc(-c2ocnc2C(=O)Nc2ccccc2NC(=O)c2ccccn2)cc1,active: 15.1 µM
4,CC(=O)c1ccc(NC(=O)CSC2=NS(=O)(=O)c3cc(Cl)ccc3N2)cc1,"inconclusive: 23.9 µM [inhibitor, single point]"
5,O=C(Nc1ccccc1)c1ccc(S(=O)(=O)Nc2cccc(O)c2)cc1,inactive
6,O=C(Cn1cnc2c(cnn2-c2ccc(F)cc2)c1=O)NCCc1ccccc1,inactive
7,COc1cc(OC)cc(C(=O)N2CCCc3ccccc32)c1,"inconclusive: 21.3 µM [inhibitor, partial curve, poor fit]"
8,Nc1cccc(C2=Nc3cccc4cccc(c34)N2)c1,"inconclusive: 37.9 µM [inhibitor, partial curve, poor fit]"
9,O=c1oc2c(F)cc(F)cc2cc1S(=O)(=O)c1ccc(F)cc1,"inconclusive: 42.6 µM [inhibitor, partial curve, poor fit]"
10,CC(C)(C)C(=O)Nc1ccc(C(=O)CSc2nnc(C3CC3)n2C2CC2)cc1,"inconclusive: 26.9 µM [inhibitor, partial curve, poor fit]"
11,CCOC(=O)CSc1ncnc2c1cnn2-c1ccc(Cl)cc1,active: 9.53 µM
12,CCOc1ccccc1NC(=O)c1c(NCc2ccc(C)o2)sc2c1CCCCC2,"inconclusive: 15.1 µM [inhibitor, partial curve, poor fit]"
13,c1ccc(Nc2ccccn2)cc1,"inconclusive: 37.9 µM [inhibitor, partial curve, poor fit]"
14,Cc1ccc(C(=O)Nc2cccc(C(=O)N/N=C/c3ccc(F)cc3)c2)cc1,active: 2.39 µM
15,CCn1c(NCc2ccccn2)nc2ccccc21,"inconclusive: 23.9 µM [inhibitor, partial curve, poor fit]"
16,Cc1cc(NC(=O)c2cc(C3CC3)on2)no1,"inconclusive: 16.9 µM [inhibitor, partial curve]"
17,CCCc1cc(=O)[nH]c(Nc2cc(OC)ccc2OC)n1,inactive
18,COc1cccc(NC(=O)C(=O)c2cn(CC(=O)N3CCCC3)c3ccccc23)c1,active: 5.36 µM
19,CC(=O)Oc1ccc(-c2ccc(C(=O)O)cc2)cc1,"inconclusive: 33.8 µM [inhibitor, single point]"
20,O=C(NCCc1ccc(Cl)cc1)c1cnc2n(c1=O)CCS2,"inconclusive: 42.6 µM [inhibitor, partial curve, poor fit]"
21,CCCCn1c(N)c(N(CCOC)C(=O)c2ccc(N3C(=O)CCC3=O)cc2)c(=O)[nH]c1=O,"inconclusive: 37.9 µM [inhibitor, partial curve, poor fit]"
22,Cc1ccc(-c2ccc(/C=N/NC(=O)c3ccccc3O)o2)cc1,"inconclusive: 10.7 µM [inhibitor, partial curve]"
23,C(=N\c1c(-c2ccccc2)nc2n1CCS2)/c1ccccc1,"inconclusive: 26.9 µM [inhibitor, partial curve, poor fit]"
